Test results from the RNAGym collection of RNA variant scans (doi:10.1073/pnas.2313332121).
This sample is rich in variants without activity.

B1: TPR 5TU (parent)
chain: GGAUCUUCUCGAUCUAACAAAAAAGACAAAUCUGCCACAAAGCUUGAGAGCAUCUUCGGAUGCAGAGGCGGCAGCCUUCGGUGGCGCGAUAGCGCCAACGUUCUCAACUAUGACACGCAAAACGCGUGCUCCGUUGAAUGGAGUUUAUCAUG

Variants of: B1
Test: polymerase ribozyme fitness, log enrichment relative to wild type (log ratio); higher = more active; in vitro selection for triplet polymerase activity
Outline: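 Both subunits of a heterodimeric triplet polymerase ribozyme were given their own mutant library, built by PCR and transcribed. Each library was annealed with a biotinylated primer, the partner subunit and triplets, incubated frozen at −7 °C, and its extended constructs gel-excised, captured on streptavidin beads and amplified by RT-PCR, all in one round done in triplicate. Fitness is the logarithm of genotype enrichment relative to wild-type enrichment, with replicates averaged by inverse-variance weighting. That logarithm is base 2, and Illumina-sequenced genotypes needed ≥10 input reads and ≥1 read per output.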

| Variant | polymerase ribozyme fitness (log ratio) |
| --- | --- |
| GGAUCUUCUCGAUCUAACAAAAAAGACAAAUCUGCCACAAAGCUUGAGAGCUUCUUCGGAUGCACAGGCGGCAGCUUGCGGUGGCGAGAUAGCGCCAACGUUGUCAACUAUGACACGCAAAACGCGUGCUCCGUAGAAUAGAGUUUAUCAUG | ≤ -4.2 |
| GGAUCUUCUCGAUCUAACAAAAAAGACAAAUCUGCCACAAAGCUUGAGAGCGUCAUCGGAUGCAGAGGCGGCAGCCUUCGGUGGCGCGAGAGCGCUAACGUUAUCAACUAUGACACGCAAAACGCGUGCUCCGUUGAAUGGAGUUUAUCAUG | ≤ -4.2 |
| GGAUCUUCUCGAUCUAACAAAAAAGACAAAUCUGCCACAAAGCUUGAGAGCGUCAUCGGAUGCAGAGGCGGCAGCCUUCGGUUGUGCGAUAGCGCCAACGUUCUCAACUAUGACACGCAACACGCGUGCUCCGUUGAAUGGAUUUUAUCAUG | ≤ -4.2 |
| GGAUCUUCUCGAUCUAACAAAAAAGACAAAUCUGCCACAAAGCUUGAGAGCUUCUACGGAUGCAGAGGCGGCAGCCUUCGGUGGCGAGAUAGCGCCAACGUUCUCAACUAUGACACGCAUAACGCGUGCUCCGUUGAAUGCAGUUUAUCAUG | ≤ -4.2 |
| GGAUCUUCUCGAUCUAACAAAAAAGACAAAUCUGCCACAAAGCUUGAGAGCUUCUUUGGAUGCAGAGGCGGCAGCCUUCGGUGGCGCGAUAGCGGCAACGUUCUCAACUAUGACAGGCAAAACGCGUGCUCCGUUGACUGGAGUUUAUCAUG | ≤ -4.2 |
| GGAUCUUCUCGAUCUAACAAAAAAGACAAAUCUGCCACAAAGCUUGAGAGCUACUUAGGAUGCAGAGGCGGCAGCCUUCGGUGGCACGAUAGCGCCAACGUUCUCAACUAUGACACGCAAAACGCGUGCUCCGUUGAAUGGAGUUUAUCAUG | -1.31 |
| GGAUCUUCUCGAUCUAACAAAAAAGACAAAUCUGCCACAAAGCUUGAGAGCUUCUUCGCAUGCAGAGGCGGCAGCCUUCGGUGGCGCGAUUGCGCCAACGUUCUCAACUAUGACACGCAAAACGCGUGCUCCGUUGAAUGGAGUUUAUCAUG | ≤ -4.2 |
| GGAUCUUCUCGAUCUAACAAAAAAGACAAAUCUGCCACAAAGCUUGAGAGCUUCUUCGGAUGCAGAGGCGGCAGCCUUCGGUAGCGCGAUAGCGCCAACGUUCUCAACUAUGACACGCAAAACGCGUGCUCCGUUGAAUGGAGUUUAUCAUG | -2.83 |
| GGAUCUUCUCGAUCUAACAAAAAAGACAAAUCUGCCACAAAGCUUGAGAGCGUCAUCGGAUGCAGAGGCGGCAGGCUUCGGUGACGCGAUAGCGCCAACGUUCUCAACUAUGACACGCAUAACGCGUGCUCCGUUGAAUGGUGUUUAUCAUG | ≤ -4.2 |
| GGAUCUUCUCGAUCUAACAAAAAAGACAAAUCUGCCACAAAGCUUGAGAGCGUCUACGGAUGCAGAGGCGGCAGCCUUCGGUGGCGCGAUAGCGCUAACGUUCUCAACUAUGACACGCAAAACGCGUGCUCCGUUGAAUUGAGUUUAUCAUG | ≤ -4.2 |
| GGAUCUUCUCGAUCUAACAAAAAAGACAAAUCUGCCACAAAGCUUGAGAGCUUCUUCGGAUGCAGAAGCGGCAGCCUUCGGUGGCGCGAUAGAGCCAACGUUCUCAACUAUGACACGCAAAACGCGUGCUCCGUUGAAUGGAGUUUAUCAUG | ≤ -4.2 |
| GGAUCUUCUCGAUCUAACAAAAAAGACAAAUCUGCCACAAAGCUUGAGAGCUUCUUCGGAUGCAGAGGCGGCAGCUUUCGGUGGCGCGAUAGCGCCAACGUUCUCAACUAUGACACGCUAAACGCGUGCUCCGAUGAAUGGAGUUUAUCAUG | ≤ -4.2 |
| GGAUCUUCUCGAUCUAACAAAAAAGACAAAUCUGCCACAAAGCUUGAGAGCGUCUGCGGAUGCAGAGGCGGCAGCCUUCGGUAGCGCGAUAGCGCCAACGUUCUCAACUAUGACACGCAAAACGCGUGCUCCGUUGAAUGGAGUUUAUCAUG | -2.85 |
| GGAUCUUCUCGAUCUAACAAAAAAGACAAAUCUGCCACAAAGCUUGAGAGCGUCUGCGGCUGCAGAGGCGGCAGCCUUCGGUGGGGCGAUAGCGCCAACGUUCUCAACUAUGACACGCAAAACGCGUGCUCCGUUGAAUGGAUUUUAUCAUG | ≤ -4.2 |
| GGAUCUUCUCGAUCUAACAAAAAAGACAAAUCUGCCACAAAGCUUGAGAGCUUCUUCGGAUGCAGAGGCGGCAGCCUUCGGUGGCGUGAUAGCGCCAACGUUUUCAACUAUGACACGCAAAACGCGUGCUCCGUUGAAUGGAGUUUAUCAUG | -2.81 |
| GGAUCUUCUCGAUCUAACAAAAAAGACAAAUCUGCCACAAAGCUUGAGAGCUUCUUCGGAUGCAGAGGCGGCAGCCUUCGAUGGCGAGAUAGCGCCUACGUUCGCAACUAUGACACGCAAAACGCCUGCUCCGGUCAAUGGAGUUUAUCAUG | ≤ -4.2 |
| GGAUCUUCUCGAUCUAACAAAAAAGACAAAUCUGCCACAAAGCUUGAGAGCGUCUCCGGAUGCAGAGGCGGCAGCCUUCGGUGGCGCGAUAGAGCCAACGUUCUCAACUAUGACACGCAAAACGCGUGCUCCGUUGAAUGGAGUUUAUCAUG | -2.44 |
| GGAUCUUCUCGAUCUAACAAAAAAGACAAAUCUGCCACAAAGCUUGAGAGCUUCUUAGGAUGCAGAGGCGGCAGCCUGCGGUGGAGCGAUAUCCCCAACGUUCUCAACUAUGACACGCUAAACGCGUCCUCCGUUGAAUGGAGUAUAUCAUG | ≤ -4.2 |
| GGAUCUUCUCGAUCUAACAAAAAAGACAAAUCUGCCACAAAGCUUGAGAGCUUCUUCGGAUGCAGAGGCGGUAGCCUUCGGUGGCCCGAUAGCGCCAACGUUCUCAACUAUGACACGCAAAACGCGUGCUCCGUUGAAUGGAGUUUAACAUG | ≤ -4.2 |
